# In PubChem BioAssay AID588453 (National Center for Advancing Translational Sciences (NCATS), 2011):
# Among all 390,000 compounds or so, about 4,000 (1%) were called active. This list was built around the results that the source calls inconclusive (neither active nor inactive); the mix of calls is not that of the screen. Calls come from the whole dose curve; as a rule, active = well fitted inhibition curve with a large enough effect; inconclusive = small, poorly fitted or top-dose-only effect; inactive = no such curve, though single readings can be large or run the other way. Where the call is inconclusive, the potency comes from a doubtful curve fit.
# Biological target: Thioredoxin reductase 1, cytoplasmic (Rattus norvegicus) (UniProt O89049)
# Chain of UniProt O89049 (O89049 whole entry, looked up): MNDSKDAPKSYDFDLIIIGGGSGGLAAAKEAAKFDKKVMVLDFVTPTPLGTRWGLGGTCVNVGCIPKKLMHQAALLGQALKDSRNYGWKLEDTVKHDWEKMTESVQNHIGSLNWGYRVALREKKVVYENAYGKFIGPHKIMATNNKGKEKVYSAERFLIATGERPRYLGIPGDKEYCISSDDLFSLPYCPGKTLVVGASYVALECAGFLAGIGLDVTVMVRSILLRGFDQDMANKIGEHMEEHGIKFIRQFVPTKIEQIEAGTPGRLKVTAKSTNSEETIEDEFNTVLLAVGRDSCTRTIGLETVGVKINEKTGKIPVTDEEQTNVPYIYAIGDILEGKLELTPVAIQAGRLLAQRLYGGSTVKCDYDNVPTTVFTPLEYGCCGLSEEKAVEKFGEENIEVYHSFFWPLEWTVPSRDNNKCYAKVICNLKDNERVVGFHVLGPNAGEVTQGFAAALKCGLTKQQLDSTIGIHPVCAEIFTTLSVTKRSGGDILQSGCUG
# Test: qHTS Assay for Inhibitors of Mammalian Selenoprotein Thioredoxin Reductase 1 (TrxR1): qHTS; note: nearly all actives have a fitted effect of over 65% in size
# Settings: recombinant rTrxR1, NADPH fluorescence consumption, selenite substrate; series mostly up to 114 µM
# Outline: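 Rat TrxR1 (90 nM in the dispensed reagent) was pre-reduced with 400 uM NADPH for 5 min at room temperature, then incubated with compound for 15 min. After 400 uM selenite was added, NADPH fluorescence (Ex 340/Em 450 nm) was followed for 8 min.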
# % is set by controls: 0 for no effect and ±100 for the full control effect; potency is the fitted concentration of half-maximal effect; tags give direction and shape of the fitted curve.
SMILES,Potency,"activity change, negative = inhibition"
Cc1cccnc1NC(=O)c1ccc(OCC2CCCO2)cc1 (configuration not stated),inactive,
Cn1c(=O)c2c(ncn2CCN(CCO)Cc2ccccc2)n(C)c1=O,"inconclusive: 14.1 µM [inhibitor, full curve]",
CCN(CC)C(=O)c1[nH]cnc1C(=O)Nc1cccc(C)c1,"inconclusive: 70.8 µM [inhibitor, partial curve]",
Cc1ccc(-c2ccc(CCC(=O)O)n2-c2ccc(C(C)C)cc2)cc1,"inconclusive: 50.1 µM [inhibitor, partial curve]",
O=C(C1CCC(=O)N(C2CCCC2)C1)N1CCN(Cc2cccc(Cl)c2)CC1 (configuration not stated),"inconclusive: 79.4 µM [inhibitor, partial curve]",
CC(=O)c1cccc(NC(=O)CN(C)S(=O)(=O)c2cccc3nsnc23)c1,"inconclusive: 50.1 µM [inhibitor, partial curve, poor fit]",
N#CC1=C2SCN(Cc3ccco3)CN2C(=O)CC1c1ccccc1F (configuration not stated),"inconclusive: 3.55 µM [inhibitor, full curve]",
Cc1cc(C(=O)CS(=O)(=O)c2ccc(Cl)cc2)cc(C)c1O,active: 44.7 µM,
CS(=O)(=O)NCc1ccccc1Br,inactive,
Cc1cccc(C2C3=C(CCCC3=O)N=C3c4ccccc4C(=O)C32)c1 (configuration not stated),"inconclusive: 56.2 µM [inhibitor, partial curve]",
Oc1ccc(Cl)cc1C1=NNC(c2cc(Br)cc3c2OCOC3)C1 (configuration not stated),"inconclusive: 89.1 µM [inhibitor, single point]",
CC/C(=N\NC(=O)c1nnn(-c2nonc2N)c1CN(C)c1ccccc1)c1ccccc1,"inconclusive: 50.1 µM [inhibitor, partial curve]",
CCC(C)[C@@H](NC(=O)OC(C)(C)C)c1nnc(S(=O)(=O)Cc2cccc(C)c2)o1 (some centres not stated),active: 1.78 µM,
COc1ccc(-n2ccnc2CN2CCN(C3CCCC3)C(CCO)C2)cc1 (configuration not stated),"inconclusive: 44.7 µM [inhibitor, partial curve]",
O=C(C1CCCN(Cc2ccc(F)cc2)C1)N1CCCCC1 (configuration not stated),inactive,
O=C(NCc1ccco1)c1cccc2c1C(=O)c1ccc(/C=C/c3ccccc3)cc1S2(=O)=O,active: 22.4 µM,
Cc1ccn2c(-c3n[nH]c(=S)n3Cc3ccccc3)c(C)nc2c1,"inconclusive: 22.4 µM [inhibitor, partial curve, poor fit]",
CCOC(=O)c1ccc(-n2c(CN(CC)CC)nc3ccc([N+](=O)[O-])cc3c2=O)cc1,"inconclusive: 44.7 µM [inhibitor, partial curve, poor fit]",
COC(=O)c1ccc(C23CC4(C2)[C@H](CN(Cc2cccnc2)[C@@H]4c2ccccc2)C3c2ccc(C(F)(F)F)cc2)cc1 (some centres not stated),inactive,
O=C(NCCNC(=O)c1ccc(Cl)cc1Cl)c1ccco1,"inconclusive: 89.1 µM [inhibitor, partial curve, poor fit]",
CCOC(=O)N1CCN(C(=O)c2ccc(CS(=O)(=O)c3ccccc3OC)o2)CC1,"inconclusive: 56.2 µM [inhibitor, partial curve, poor fit]",
Nc1ccc2nc(-c3cc(Cl)c(N)c(Cl)c3)[nH]c2c1,"inconclusive: 89.1 µM [inhibitor, partial curve, poor fit]",
COc1ccc2nc(NC(=O)C3CC(=O)N(c4ccc5c(c4)OCCO5)C3)sc2c1 (configuration not stated),inactive,

SMILES,Potency,"activity change, negative = inhibition"
COc1ccc(Cl)c(CNC[C@H]2O[C@@H](n3cnc(C(N)=O)n3)[C@H](O)[C@@H]2O)c1,"inconclusive: 1.12 µM [inhibitor, full curve, poor fit]",
O=C(c1cc2nc(-c3ccco3)cc(C(F)(F)F)n2n1)N1CCN(c2ccccn2)CC1,"inconclusive: 39.8 µM [inhibitor, single point]",
Cc1[nH]c2ccccc2c1C(=O)CCl,"inconclusive: 12.6 µM [inhibitor, full curve]",
N=C1C=CC=C2C1=NC1(CCCCC1)N2O,"inconclusive: 50.1 µM [inhibitor, partial curve]",
S=c1[nH]nc(-c2ccc(Cl)cc2Cl)n1-c1ccc2c(c1)OCCO2,"inconclusive: 3.98 µM [inhibitor, partial curve, poor fit]",
O=C(NC1CCCc2ccccc21)c1cccc(Br)c1 (configuration not stated),"inconclusive: 79.4 µM [inhibitor, single point]",
O=C(CN1CCCC1)N/N=C/c1c(O)ccc2ccccc12,inactive,
O=C(CC(c1ccco1)S(=O)(=O)c1ccccc1)c1ccc(F)cc1 (configuration not stated),active: 50.1 µM,
Cc1ccc(NC(=S)NCCN2CCOCC2)cc1F,inactive,
Cc1cc(NC(=O)C2CC2)ncc1NC(=O)C12CC3CC(CC(C3)C1)C2,"inconclusive: 44.7 µM [inhibitor, single point]",
COc1ccc(/C=N/n2c(-c3n[nH]c4c3CCC4)n[nH]c2=S)cc1,inactive,
COc1ccc(Cc2ccccc2C(=O)O)cc1,,inactive: -7.04% [at 2.29 µM]
Cc1ccc(-c2nc3c(C)cccn3c2Nc2ccccc2C)s1,"inconclusive: 50.1 µM [inhibitor, partial curve, poor fit]",
COCCNC(=O)/C(C#N)=C/c1ccc(N2CCOCC2)o1,"inconclusive: 50.1 µM [inhibitor, partial curve, poor fit]",
CC(C)(C)C1c2[nH]c3ccccc3c2CCN1Cc1cccc(OCCO)c1 (configuration not stated),"inconclusive: 28.2 µM [inhibitor, partial curve, poor fit]",
O=c1oc2c(-c3cccc(F)c3)cc(O)cc2s1,"inconclusive: 89.1 µM [inhibitor, single point]",
COc1cc2c(cc1NC(=O)CSc1nnc(Cc3cccs3)n1C)oc1ccccc12,inactive,
O=C(O)/C=C/c1ccc(-c2cccc(C(F)(F)F)c2)o1,"inconclusive: 35.5 µM [inhibitor, full curve, poor fit]",
O=C1CCC(=O)N1c1ccccc1-c1ccccc1,inactive,
Cc1nc(Cl)c2oc3ccccc3c2n1,"inconclusive: 56.2 µM [inhibitor, single point]",
CCOc1ccc(/C=C2\SC(=O)N(CCNC(=O)C3COc4ccccc4O3)C2=O)cc1OC (configuration not stated),"inconclusive: 56.2 µM [inhibitor, partial curve, poor fit]",
CC(=O)O[C@@H]1[C@@H](O)CN[C@@H]1Cc1ccccc1,active: 39.8 µM,
O=C(O)c1cccc(Cn2c(Cl)c(/C=N/NC(=O)c3ccc(O)cc3)sc2=O)c1,"inconclusive: 56.2 µM [inhibitor, partial curve, poor fit]",

SMILES,Potency,"activity change, negative = inhibition"
CCOc1cc(C2c3c(oc4cc(C)cc(C)c4c3=O)C(=O)N2CCO)ccc1O (configuration not stated),"inconclusive: 17.8 µM [inhibitor, partial curve, poor fit]",
CC(C)(C)C(=O)NC(=S)NNC(=O)c1ccc(-c2ccccc2)cc1,"inconclusive: 3.55 µM [inhibitor, full curve]",
O=c1cc(-c2ccccc2)[nH]n2cnnc12,"inconclusive: 79.4 µM [inhibitor, partial curve, poor fit]",
CCCNS(=O)(=O)c1ccc(CCC(=O)NCc2ccco2)cc1,"inconclusive: 44.7 µM [inhibitor, partial curve]",
CC(=O)Nc1ccc(SC[C@H](Cc2ccccc2)N2CC[C@@H](N)CCC2=O)cc1,inactive,
Cc1ccc(C2c3c(oc4ccccc4c3=O)C(=O)N2CCCN2CCOCC2)o1 (configuration not stated),"inconclusive: 35.5 µM [inhibitor, single point]",
O=[N+]([O-])c1cccc(-c2n[nH]c(=S)n2-c2ccccc2)c1,"inconclusive: 4.47 µM [inhibitor, partial curve, poor fit]",
O=C(c1c[nH]c2ccccc12)N1CCN(c2ccccc2)CC1,"inconclusive: 50.1 µM [inhibitor, partial curve]",
CCOc1ccc(C(=O)COC(=O)c2c(-c3ccccc3)noc2C)cc1,inactive,
COc1ccc(/C=C/C(=O)N(c2ccccn2)C2CCCCC2)cc1OC,"inconclusive: 28.2 µM [inhibitor, single point]",
Cc1ccccc1OCCN1C(=O)NC2(CCCc3ccccc32)C1=O (configuration not stated),inactive,
Cc1cc(NC(=O)CSCC(=O)N(c2ccc(F)cc2)C(C(=O)NC2CCCCC2)c2ccc(O)c(O)c2)no1 (configuration not stated),"inconclusive: 79.4 µM [inhibitor, single point]",
COc1ccccc1N1CCN(C(=O)Cc2cccs2)CC1,"inconclusive: 79.4 µM [inhibitor, single point]",
O=C(Nc1nnc(-c2ccccc2Cl)o1)c1ccco1,inactive,
Cn1c(-c2ccccc2)c(C#Cc2ccc(N)cc2)c2ccccc21,"inconclusive: 28.2 µM [inhibitor, partial curve, poor fit]",
CCNC(=S)Nc1scc(-c2ccccc2)c1C(=O)OCC,"inconclusive: 50.1 µM [inhibitor, partial curve]",
O=C(Oc1ccc(F)cc1)c1nc(SCc2ccc(F)cc2)ncc1Cl,inactive,
CC(=O)CCS(=O)(=O)c1ccc(C)c(C)c1,"inconclusive: 63.1 µM [inhibitor, single point]",
CN(C)c1ccc2c(c1)OC(N)=C(C#N)C2c1cccc(F)c1 (configuration not stated),"inconclusive: 7.08 µM [inhibitor, partial curve, poor fit]",
CCOC(=O)c1cc(C)nc(S(C)(=O)=O)c1C#N,"inconclusive: 12.6 µM [inhibitor, partial curve, poor fit]",
O=C1C2=C(C(c3ccccc3)=NCCN2)C(c2cccc([N+](=O)[O-])c2)N1c1ccccc1 (configuration not stated),"inconclusive: 12.6 µM [inhibitor, partial curve]",
